Laboratory results from the supplement of paper PMC12217912.
This is one part of the list. The full chains were built here from the parent and the listed change. Values near 0.05 are background.

B1: TEV protease; numbered along this chain (parent)
chain: MGESLFKGPRDYNPISSSICHLTNESDGHTTSLYGIGFGPFIITNKHLFRRNNGTLVVQSLHGVFKVKDTTTLQQHLVDGRDMIIIRMPKDFPPFPQKLKFREPQREERICLVTTNFQTKSMSSMVSDTSCTFPSGDGIFWKHWIQTKDGQCGSPLVSTRDGFIVGIHSASNFTNTNNYFTSVPKNFMELLTNQEAQQWVSGWRLNADSVLWGGHKVFMVKPEEPFQPVKEATQL

Variants of: B1
Assay: raw area under fraction-flipped curve 0-4 h after induction (AUC4h, not background-subtracted), DNA-recorder readout of cleavage of the substrate (dimensionless); higher = more cleavage of the substrate by the protease variant
Conditions: temperature: 34 °C; time window: 0-4 h after rhamnose induction
Method: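 In vivo DNA recorder in E. coli TOP10(DE3) ΔrhaA at 34 °C. Each TEVp single-site mutant (parent TEVp 0) is paired with a single-site variant of the 7-mer TEVs (canonical ENLYFQ|S). The substrate sits between flexible linkers in a Bxb1-sfGFP-TEVs-SsrA fusion, so cleavage stabilises Bxb1 and speeds flipping of a recombination array, read by NGS. The value is the raw area under the fraction-flipped curve over 0-4 h after rhamnose induction (AUC4h), with ≥20 reads per time point. It is not background-subtracted; inactive controls average about 0.047.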
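Note: Bxb1 expression induced with 0.2% (w/v) L-rhamnose at OD600 near 0.5, cultures sampled hourly, flipped fraction per protease–substrate barcode pair counted by paired-end Illumina sequencing.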

| Variant | area with substrate ENAYFQS | area with substrate ENCYFQS | area with substrate ENDYFQS | area with substrate ENEYFQS | area with substrate ENFYFQS | area with substrate ENGYFQS | area with substrate ENHYFQS | area with substrate ENKYFQS | area with substrate ENNYFQS | area with substrate ENPYFQS | area with substrate ENQYFQS | area with substrate ENSYFQS | area with substrate ENTYFQS | area with substrate ENVYFQS | area with substrate ENIYFQS | area with substrate ENRYFQS | area with substrate ENWYFQS | area with substrate ENYYFQS | area with substrate ENMYFQS |
| --- | --- | --- | --- | --- | --- | --- | --- | --- | --- | --- | --- | --- | --- | --- | --- | --- | --- | --- | --- |
| A196N | 0.0564 | 0.0588 | 0.0613 | 0.0547 | 0.0688 | 0.0661 | 0.056 | 0.0556 | 0.063 | 0.0631 | 0.0584 | 0.0868 | 0.0619 | 0.0639 |  |  |  |  |  |
| E189V | 0.0499 | 0.0538 | 0.0591 | 0.0505 | 0.0672 | 0.0603 | 0.0626 |  | 0.0615 | 0.054 | 0.035 | 0.0894 |  |  | 0.0984 | 0.0605 | 0.0404 |  |  |
| E189I | 0.0777 |  |  | 0.0598 | 0.0361 |  |  |  | 0.0693 | 0.062 |  | 0.0646 |  | 0.0776 | 0.142 |  |  | 0.0494 |  |
| K221T | 0.0662 | 0.0787 | 0.0589 | 0.0674 | 0.0581 | 0.0553 | 0.0618 | 0.0627 | 0.0544 |  | 0.0755 | 0.0846 |  | 0.0519 | 0.0721 | 0.068 |  |  | 0.0515 |
| K221N | 0.0546 | 0.0604 | 0.0589 |  | 0.0573 | 0.0728 | 0.058 | 0.0644 | 0.0607 | 0.065 | 0.0566 | 0.056 | 0.0559 | 0.0709 | 0.0928 | 0.0655 | 0.0445 | 0.055 | 0.0783 |
| S169C | 0.0597 | 0.0587 | 0.0638 | 0.0673 | 0.0648 |  | 0.0645 | 0.0797 |  |  | 0.0658 | 0.0613 | 0.0598 |  | 0.121 | 0.0834 |  | 0.0691 | 0.055 |
| S169A | 0.0638 | 0.0658 | 0.0656 |  | 0.0551 | 0.0384 | 0.0435 | 0.0576 | 0.0516 |  | 0.0526 | 0.0647 |  | 0.087 |  | 0.0453 |  |  | 0.0599 |
| H215G | 0.0606 | 0.0616 | 0.0719 | 0.0559 | 0.0662 |  | 0.0606 | 0.0512 | 0.0603 | 0.0646 | 0.0627 | 0.0617 | 0.0483 | 0.0661 |  | 0.0603 |  |  |  |
| V165D | 0.0573 | 0.0638 | 0.0523 | 0.0528 | 0.0527 | 0.0595 |  | 0.0745 | 0.0658 |  | 0.0563 | 0.0576 | 0.0816 |  | 0.0355 | 0.0379 |  |  | 0.053 |
| G213Y | 0.0622 | 0.0442 | 0.0673 | 0.0596 | 0.0336 | 0.0556 | 0.0604 | 0.0632 | 0.0635 | 0.0537 | 0.0678 | 0.0615 | 0.0725 | 0.0488 | 0.043 |  | 0.0458 |  |  |
| G213A | 0.0601 | 0.0601 | 0.0616 | 0.056 | 0.057 | 0.0742 | 0.0594 | 0.0807 | 0.0594 |  | 0.0645 | 0.0769 | 0.0667 | 0.0571 | 0.0464 | 0.0595 | 0.0497 | 0.0313 | 0.0633 |
| G213K | 0.0596 | 0.0487 | 0.0635 | 0.0554 | 0.0601 | 0.0601 |  |  | 0.0532 | 0.0588 | 0.0565 | 0.0661 | 0.0597 | 0.0691 |  | 0.0535 | 0.0506 |  |  |
| I167F | 0.0492 | 0.0625 | 0.0596 | 0.0581 | 0.059 | 0.0564 |  | 0.0671 | 0.0555 |  | 0.0664 | 0.0711 |  | 0.0561 | 0.0689 | 0.074 | 0.0656 | 0.0428 |  |
| S171G | 0.0529 |  | 0.0711 |  |  |  | 0.0638 | 0.0522 |  |  | 0.0714 | 0.0588 | 0.0459 | 0.0699 |  |  |  |  |  |
| Q198Y | 0.0611 | 0.0509 | 0.0689 | 0.061 |  | 0.0525 | 0.0618 | 0.0594 | 0.0576 | 0.0574 | 0.0734 | 0.0595 | 0.0568 | 0.0576 | 0.0887 | 0.0539 | 0.0459 | 0.0651 | 0.0648 |
| L191I | 0.0572 | 0.0668 |  | 0.0584 | 0.0481 |  | 0.0536 |  | 0.0655 | 0.0596 | 0.0564 | 0.0746 |  |  |  | 0.0436 |  |  |  |
| L191T | 0.0618 | 0.0649 | 0.065 | 0.0686 | 0.0496 | 0.0312 |  | 0.0337 | 0.0592 | 0.07 | 0.0601 | 0.0585 | 0.0642 | 0.0606 |  | 0.039 | 0.0557 | 0.0563 |  |
| Q197C | 0.0445 | 0.0622 | 0.0427 | 0.0598 | 0.0591 | 0.0484 | 0.0352 |  | 0.0577 |  | 0.0633 | 0.0629 | 0.0659 |  | 0.14 | 0.0598 |  |  |  |
| N177V | 0.0874 | 0.0684 | 0.0452 |  |  |  | 0.0729 | 0.0595 | 0.0551 |  | 0.111 | 0.0675 | 0.0871 | 0.106 |  | 0.0577 | 0.0368 |  | 0.0915 |
| V217H | 0.0576 | 0.0613 | 0.052 | 0.0633 | 0.049 | 0.0727 |  |  | 0.073 |  | 0.0586 | 0.0585 | 0.0622 | 0.0658 |  | 0.072 |  | 0.0459 | 0.0586 |
| V217N | 0.0564 | 0.0548 | 0.0654 | 0.0697 |  |  | 0.0639 |  |  |  | 0.0549 |  |  | 0.0607 |  | 0.0708 |  | 0.069 |  |
| V210G | 0.0652 |  | 0.0598 | 0.0503 | 0.0574 | 0.0685 |  |  |  |  | 0.053 | 0.0523 |  | 0.0726 | 0.0733 |  |  | 0.066 |  |
| V210D | 0.0635 | 0.0658 | 0.0571 | 0.0645 | 0.0611 | 0.0574 | 0.0554 | 0.0531 | 0.0706 |  | 0.0557 | 0.0448 |  | 0.0823 |  | 0.0682 | 0.052 | 0.0642 |  |
| G166T | 0.0477 | 0.0492 | 0.0569 | 0.0285 |  |  | 0.025 |  | 0.0551 |  | 0.0471 | 0.0464 | 0.0305 | 0.043 |  |  |  | 0.0477 |  |
| G166S | 0.0518 |  | 0.0492 | 0.0462 | 0.0542 | 0.0496 | 0.0491 |  | 0.0528 |  | 0.059 | 0.0543 | 0.0599 | 0.0666 | 0.0567 | 0.058 |  |  |  |
| G166Q | 0.0403 |  |  | 0.0605 | 0.0517 | 0.0485 | 0.056 | 0.0385 | 0.0497 |  | 0.0517 | 0.0537 |  | 0.0314 | 0.0659 | 0.0592 |  | 0.044 |  |
